# Test results as given in PubChem BioAssay AID540267 (National Center for Advancing Translational Sciences (NCATS), 2011).
# Hit rate of the full screen: of about 340,000 compounds, about 530 (0.16%) were called active. This list was built around the results that the source calls inconclusive (neither active nor inactive); the mix of calls is not that of the screen. No stated cut-off is given here; in the data, active means activity change below about -80%; inconclusive means between about -30% and that limit; inactive means weaker than that.
# Assay: Small Molecules that selectively kill Giardia lamblia: qHTS;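 further: parasites exposed to compound for two days anaerobically before the ATP read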
# Conditions: Giardia lamblia trophozoite viability; at 7.66 µM; stronger effect = lower value
# How it was run: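 Viability, read as ATP luminescence: trophozoites at 100 cells/well, compound added, 48 hrs anaerobic at 37 deg C, then 15-30 min room-temperature development before reading.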
# On the % scale 0 is the no-effect control and ±100 the full control effect.
row,Compound,activity change
1,C/[N+]([O-])=C\c1ccc([N+](=O)[O-])o1,active: -92.7%
2,C=CCn1c(O)c(N=Nc2ccccc2O)c2ccccc21,inactive: -26.5%
3,COc1cccc(CNC(=O)COC(=O)/C=C/c2ccc(SC)cc2)c1,inconclusive: -39.1% [inhibitor]
4,CN(C(=O)CSc1cccc[n+]1[O-])C1CCCCC1,inconclusive: -30.4% [inhibitor]
5,O=C(c1ccc2c(c1)CCN2S(=O)(=O)c1ccccc1)N1CCN(c2ccccc2)CC1,inconclusive: -32.3% [inhibitor]
6,COc1ccc(C(=O)Nc2cccc(OC(=O)c3ccc(C)c(C)c3)c2)cc1,inconclusive: -33.9% [inhibitor]
7,COc1ccc(C(=O)Nc2nnc(S(=O)(=O)N(C)Cc3ccc(F)cc3)s2)cc1OC,inconclusive: -31.6% [inhibitor]
8,CC1CCc2c(sc(NC(=O)Cn3cnc([N+](=O)[O-])n3)c2C(N)=O)C1 (stereo not drawn),inconclusive: -47.1% [inhibitor]
9,COc1ccc(CCNC(=O)c2cc3c(=O)n4ccccc4nc3n(Cc3ccco3)c2=N)cc1OC,inconclusive: -37.8% [inhibitor]
10,O=C(N/N=C/c1ccc(-c2ccccc2[N+](=O)[O-])o1)[C@H]1C[C@@H]1c1ccccc1,inactive: -8.64%
11,C[C@@H]1O[C@@H](OC[C@H]2O[C@@H](Oc3cc(O)c4c(=O)cc(-c5ccc(O)c(O)c5)oc4c3)[C@H](O)[C@@H](O)[C@@H]2O)[C@H](O)[C@H](O)[C@H]1O,inconclusive: -41.3% [inhibitor]
12,COc1cc(/C(C)=N/N2CCOCC2)cc(OC)c1OC,inconclusive: -33.1% [inhibitor]
13,C[C@H](NC(=O)c1nc[nH]c1C(=O)N[C@@H](C)C(=O)OC(C)(C)C)C(=O)OCc1ccccc1,inactive: 5.89%
14,CCCC(=O)NC(=S)NNC(=O)c1ccc([N+](=O)[O-])cc1,inconclusive: -60.4% [inhibitor]
15,Cc1ncc([N+](=O)[O-])n1CCOC(=O)c1cc(Cl)cc(Cl)c1N,active: -85.9%
16,Nc1nc2n(n1)C(c1cccc(Cl)c1)CC(c1ccc(F)cc1)N2 (stereo not drawn),inconclusive: -42.2% [inhibitor]
17,Cc1cccc(NC(=O)CN2CCN(C(=O)c3cncn3-c3ccc(F)cc3)CC2)c1C,inconclusive: -37% [inhibitor]
18,O=C(Nc1ccc(NC(=O)C2CC2)cn1)c1ccccc1,inconclusive: -34.5% [inhibitor]
19,COc1ccc(S(=O)(=O)N2CCOCC2)cc1NC(=O)COC(=O)C1=COCCO1,inconclusive: -32.7% [inhibitor]
20,O=C(CSc1nnnn1-c1ccccc1)NC(=O)NCc1ccco1,inactive: -14.1%
21,Cc1ccccc1OCC(=O)N/N=C/c1ccc([N+](=O)[O-])o1,active: -92.9%
22,N#Cc1c(-c2ccc([N+](=O)[O-])cc2)nc2n(c1=O)CCS2,inconclusive: -45% [inhibitor]
23,O=C(/C=C/c1cccc([N+](=O)[O-])c1)N1CCOCC1,inactive: -2%
24,O=C(NOCc1ccccc1)c1ccc(Cl)cc1Cl,inconclusive: -40.4% [inhibitor]

row,Compound,activity change
1,COc1ccc2nc(-c3ccccc3)cc(C(=O)N3CCC3)c2c1,inactive: -19.3%
2,CCOc1ccc(S(=O)(=O)N2CCC(C(=O)NCc3cccnc3)CC2)cc1,inactive: 19.8%
3,CCOC(=O)c1csc(NC(=O)c2ccc(OCC)cc2)n1,inactive: -6.62%
4,C[C@@H](NC(=O)c1cc2c([nH]c3ccccc32)c(-c2ccccc2)n1)C(=O)O,inconclusive: -34.4% [inhibitor]
5,CCOC(=O)CC1CCCCN1C(=O)CCCn1nnnc1CN1CCOCC1 (stereo not drawn),inconclusive: -31.2% [inhibitor]
6,O=C(N[C@@H](Cc1ccccc1)C(=O)O)c1cccs1,inconclusive: -30.5% [inhibitor]
7,CCOC(=O)c1ccccc1NC(=O)c1cn(CC)c2nc(C)ccc2c1=O,inconclusive: -34.9% [inhibitor]
8,CCOc1ccc(CNCCN2CCCC2)cc1,inactive: 12.5%
9,Cc1cc(C)cc(N=c2c([N+](=O)[O-])nn(-c3ccc(Cl)cc3)n2O)c1,inconclusive: -74.4% [inhibitor]
10,CCN1C(=O)[C@H]2[C@H]3CN=C(SCc4ccccc4)N3[C@@](Cc3ccccc3)(C(=O)OC)[C@H]2C1=O,inconclusive: -56.3% [inhibitor]
11,O=c1c2ccccc2oc2ccc(C#CC3(O)CCCCC3)cc12,inconclusive: -43.9% [inhibitor]
12,O=C1Nc2cc(C(=O)NCCN3CCCCCC3)ccc2S/C1=C\c1ccccc1,inconclusive: -30.5% [inhibitor]
13,O=C(N/N=C/c1ccccn1)c1cc(-c2ccccc2Cl)n[nH]1,inconclusive: -39.9% [inhibitor]
14,O=C(NC1CCCCC1)C(c1ccc(F)cc1)N(Cc1ccco1)C(=O)CN1C(=O)c2ccccc2S1(=O)=O (stereo not drawn),inactive: -7.08%
15,Cc1cc(S(=O)(=O)NCc2ccc3c(c2)OCO3)ccc1F,inconclusive: -30.9% [inhibitor]
16,CCCCCCCC/C=C\CCCCCCCC(=O)O,inconclusive: -35.9% [inhibitor]
17,COc1ccc(CNC(=S)Nc2ccc(-c3ccccc3)cc2)cc1,inactive: 9.11%
18,Cc1ccc(CNC(=O)c2cc(S(=O)(=O)N3CCOCC3)cn2C)cc1,inconclusive: -61.8% [inhibitor]
19,CC(C)CCn1nnnc1CN1CCN(C(=O)c2ccco2)CC1,inactive: -7.9%
20,CCNC(=S)NC1CC2CCCC(C1)N2Cc1ccc(C)cc1 (stereo not drawn),inconclusive: -34.8% [inhibitor]
21,CC(=N\NC(=O)c1cc(Br)ccc1O)/C(=N/O)C(=O)Nc1ccccc1,inconclusive: -31.5% [inhibitor]
22,C/C(=N\OCC(=O)N/N=C/c1ccccc1)c1cccs1,inactive: 5.76%
23,CC(c1ccco1)N(C(=O)C12CC3(C)CC(C)(CC(C)(C3)C1)C2)c1ccccn1 (stereo not drawn),inconclusive: -31.3% [inhibitor]
24,Cc1ccc(CC(=O)N2CCN(c3ccccn3)CC2)cc1,inconclusive: -34.5% [inhibitor]
